Several values for one entry are separate records, joined by “and”; a condition that tells them apart may be missing. Equal values may be shown once. About 930 (0.24%) of roughly 390,000 compounds were called active. This list was built around the results that the source calls inconclusive (neither active nor inactive); the mix of calls is not that of the screen. Calls follow the shape of the dose curve; as a rule, active = well fitted activation curve with a large enough effect; inconclusive = small, poorly fitted or top-dose-only effect; inactive = no such curve, though single readings can be large or run the other way. A potency beside an inconclusive call is a rough fit, not a confirmed value.
assay: qHTS for Suppressors of FUS Proteinopathy: Primary screen using FUS-linked yeast assay; also: nearly all actives have a fitted effect of over 55% in size;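 as to growth rescue (activation): plate controls were DMSO vehicle for no effect and reference control for full effect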; conditions: S. cerevisiae FUS-expressing, OD600, 24 h; Potency: growth rescue; growth rescue (activation): at 76.6 µM (top of the series)
How it was run: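 Yeast expressing FUS under galactose induction, OD 0.005 in 2% galactose medium; compounds in a dilution series, 24 h at 30C. Growth rescue by absorbance at 600 nm; CP55940 positive control, DMSO negative.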
Potency is read from the fitted curve at half-maximal effect; tags tell the direction and shape of the fitted curve.

| Structure (SMILES) | Potency | growth rescue (activation) |
| --- | --- | --- |
| CCOC(=O)[C@@]12CCCC=C1N(CCc1ccc(Cl)cc1)C(=O)[C@H]2CC(=O)NCC12CC3CC(CC(C3)C1)C2 | inconclusive: 31.6 µM [activator, single point] | – |
| O=Cc1cccc(OCc2cccc3ccccc23)c1 | inactive | – |
| CCOc1ccc(-n2c(SCC(=O)Nc3ccc(S(=O)(=O)Nc4nccs4)cc3)nnc2-c2ccco2)cc1 | inconclusive: 5.01 µM [activator, full curve] | – |
| CCOC(=O)c1ccc(N2C(=O)c3[nH]nc(-c4ccc(C)cc4)c3C2c2ccc(O)cc2)cc1 (stereo unspecified) | inconclusive: 31.6 µM [activator, single point] | – |
| COC(=O)CC1Sc2ccccc2NC1=O (stereo unspecified) | – | inconclusive: 53.4% [activator] |
| Cc1ccc(-n2c(-c3cccnc3)n[nH]c2=S)c(C)c1 | – | inconclusive: 43.2% [activator] |
| COC(=O)[C@]1(Cc2ccccc2)N[C@H](CN(C)S(=O)(=O)c2ccc(OC(F)(F)F)cc2)[C@@H]2C(=O)N(C)C(=O)[C@@H]21 | inconclusive: 20 µM [activator, single point] | – |
| COCOCCn1cc(CN2CCS(=O)(=O)N(Cc3ccc(-c4ccc(F)cc4)cc3)C(CC(C)C)C2=O)nn1 (stereo unspecified) | inconclusive: 31.6 µM [activator, single point] | – |
| Cc1cc(=O)oc(C)c1C(=O)NCCCN1CCN(c2ccc(F)cc2)CC1 | inconclusive: 17.8 µM [activator, partial curve, poor fit] | – |
| COC(=O)[C@H](Cc1ccccc1)NC(=O)[C@H]1C[C@@]2(N3CCCC3)c3ccccc3N(C(=O)OC(C)(C)C)[C@H]2N1C(=O)OC(C)(C)C | inconclusive: 2.82 µM [activator, full curve] | – |
| COCC(=O)NNC(=O)Cc1ccc(Cl)cc1 | inactive | – |
| COCCCNc1nc2c(c(=O)n(Cc3ccccc3)c(=O)n2C)n1C | inactive | – |
| CCn1nc(C)c(CNC(=O)c2cc(COc3ccc(F)cc3Cl)on2)c1C | inconclusive: 20 µM [activator, partial curve] | – |
| Cc1cccc(-n2c(=O)[nH]c3c(C(N)=O)nc(C(C)C)nc32)c1 | inconclusive: 39.8 µM [activator, single point] | – |
| COc1ccc(/C(O)=C2\C(=O)C(=O)N(c3cc(C)on3)C2c2cccc(OC)c2OC)cc1C (stereo unspecified) | inconclusive: 31.6 µM [activator, partial curve, poor fit] | – |
| COc1ccc(C2c3c(n(C)c4ccccc34)C(=O)N2CC(=O)Nc2c(C)cc(C)cc2C)cc1 (stereo unspecified) | inconclusive: 28.2 µM [activator, single point] | – |
| Brc1cccc(-c2nc3ccc(Br)cn3c2Cc2ccccc2)c1 | inactive | – |
| CCOC(=O)N1CCC(NC(=O)c2ccc3c(c2)N(Cc2ccccc2)C(=O)c2ccccc2S3(=O)=O)CC1 | inconclusive: 17.8 µM [activator, partial curve, poor fit] | – |
| Cc1ccc(-c2onc(C)c2C)cc1S(=O)(=O)N1CCC(C)CC1 | inconclusive: 50.1 µM [activator, single point] | – |
| CCOc1ccc(C2C(=O)N(C3CCCCC3)CC(=O)N2Cc2ccccc2OC)cc1OC (stereo unspecified) | inactive | – |
| CC1Cc2ccccc2N1CC(=O)NC(=O)NCc1ccco1 (stereo unspecified) | inconclusive: 12.6 µM [activator, partial curve] | – |

| Structure (SMILES) | Potency | growth rescue (activation) |
| --- | --- | --- |
| Cc1ccc(NC2=C([N+](=O)[O-])CS(=O)(=O)C2)cc1 | inconclusive: 7.08 µM [activator, partial curve, poor fit] | – |
| COC(=O)[C@]12C[C@H](CC(=O)NCCCCc3ccccc3)C(=O)N(CCc3ccc(OC)c(OC)c3)C1=C[C@H](C(C)(C)C)O[C@@H]2C | inconclusive: 17.8 µM [activator, partial curve, poor fit] | – |
| CS(=O)(=O)c1ncc(Cl)c(C(=O)N2CCN(c3cccc(Cl)c3)CC2)n1 | inactive | – |
| CC(C)c1ccc(C2c3[nH]c4ccccc4c3C[C@H]3C(=O)N(c4ccccc4C(=O)N4CCC(C(=O)O)CC4)C(=O)N23)cc1 (stereo partly specified) | inconclusive: 12.6 µM [activator, partial curve] | – |
| CC(=O)N1CCCN(C(=O)CN2C(=O)CC(C)(C)S(=O)(=O)c3ccccc32)CC1 | inactive | – |
| CCN(CC)c1ccc(-c2sc(Nc3ccccc3)n[n+]2-c2ccc(F)cc2)cc1 | inconclusive: 28.2 µM [activator, single point] | – |
| CCN(C(=O)CSc1nnc(-c2cc3occc3n2C)n1-c1ccccc1C)c1ccccc1 | inactive | – |
| COc1ccc(NC(=O)COc2nc(N(C)C)nc(N(C)C)n2)cc1 | – | inconclusive: 60.8% [activator] |
| S=c1[nH]nc(Cc2sc(-c3ccccc3)nc2-c2ccccc2)o1 | inconclusive: 31.6 µM [activator, single point] | – |
| Cc1c(C(=O)NCc2ccc(F)cc2)sc(=O)n1Cc1ccc(Cl)c(Cl)c1 | inconclusive: 35.5 µM [activator, single point] | – |
| Cc1nc(Cl)sc1C(=O)Nc1cc(F)cc(F)c1 | inactive | – |
| O=C1C=C(c2cc3ccccc3s2)C[C@@H](c2ccc(F)cc2)C1 | inactive | – |
| CCOc1ccc(OCCOCCn2c(-c3ccc(Cl)cc3)nc3ccccc3c2=O)cc1 | inactive | – |
| CN(c1ccccc1)S(=O)(=O)c1cccc(NC(=O)CCNC(=O)c2ccc([N+](=O)[O-])cc2)c1 | inconclusive: 50.1 µM [activator, single point] | – |
| O=C(CCN1C(=O)C2C3C=CC(C3)C2C1=O)N1CCN(c2ccc(F)cc2)CC1 (stereo unspecified) | inconclusive: 1.78 µM [activator, full curve, poor fit] | – |
| CSc1ncc(C(=O)NCc2ccc(F)cc2)c(-c2ccccc2)n1 | inconclusive: 11.2 µM [activator, partial curve, poor fit] | – |
| Cc1cccc(NC(=O)c2cccnc2)c1 | inactive | – |
| CCc1ccc(CN(C)C(=O)CCc2nc3ccccc3n(-c3ccc(OC)cc3)c2=O)cc1 | inconclusive: 22.4 µM [activator, partial curve, poor fit] | – |
| Cc1cc(C)cc(NC(=O)c2cn3c4c(ccc(Cl)c4c2=O)OC(C)C3)c1 (stereo unspecified) | inactive | – |
| CN1CCCCCC1=Nc1ccc([N+](=O)[O-])cc1 | inactive | – |
| CC(=O)Nc1ccc(C(=O)N/C(=C/c2ccccc2)C(=O)N2CCCCC2)cc1 | inactive | – |

| Structure (SMILES) | Potency | growth rescue (activation) |
| --- | --- | --- |
| CCN1CCN(Cc2ccc(NC(=O)c3ccc(C)c(NC(=O)C(=O)c4c[nH]c5ccccc45)c3)cc2C(F)(F)F)CC1 | inconclusive: 50.1 µM [activator, single point] and inconclusive: 31.6 µM [activator, single point] and inconclusive: 39.8 µM [activator, single point] | – |
| O=C(NC1CCCCN(Cc2cccc(F)c2)C1=O)c1ccc2ccccc2c1 (stereo unspecified) | inactive | – |
| Cc1ccc2c(C)c(C(=O)N(Cc3ccccc3)C3CCS(=O)(=O)C3)oc2c1 (stereo unspecified) | inconclusive: 28.2 µM [activator, single point] | – |
| CCCn1nnnc1NCc1ccc(N2CCCC2)cc1 | inconclusive: 17.8 µM [activator, single point] | – |
| COc1ccc(S(=O)(=O)N(CC(=O)N2CCN(c3ccccc3OC)CC2)c2ccccc2)cc1 | inconclusive: 39.8 µM [activator, single point] | – |
| Cc1ccc(-c2nnc(Nc3cccc(Br)c3)c3ccccc23)cc1S(=O)(=O)N1CCCCC1 | inconclusive: 31.6 µM [activator, single point] | – |
| CN1OC[C@@H]2CN(S(=O)(=O)c3cccc4ccccc34)[C@H](c3ccc(-c4cccnc4)cc3)C[C@@H]21 | inconclusive: 15.8 µM [activator, partial curve] | – |
| O=C1CN(C(=O)c2c(F)cccc2F)C(c2ccccc2)c2cc(Br)ccc2N1 (stereo unspecified) | inconclusive: 31.6 µM [activator, single point] | – |
| COC(=O)[C@@]1(Cc2ccc(F)cc2)[C@H]2c3cc(C(=O)N4CCCC4)n(Cc4ccc(Cl)c(C(F)(F)F)c4)c3C[C@H]2CN1C(=O)c1ccccc1 | inconclusive: 22.4 µM [activator, partial curve] | – |
| CCN(CC(=O)Nc1ccc(NC(C)=O)cc1)CC(=O)Nc1cccc(Cl)c1 | inactive | – |
| CC(=O)c1ccc(S(=O)(=O)Nc2ccc(-c3ccc(N4CCCCC4)nn3)cc2)cc1 | inactive | – |
| CC(C)N(C(=O)[C@H]1CC(CC(=O)NCCC2=CCCCC2)C(=O)N2CCc3c([nH]c4ccccc34)[C@]12C)C(C)C (stereo partly specified) | inconclusive: 25.1 µM [activator, single point] | – |
| CCC1=C(OC(=O)N(CC)CC)N2C(=O)OC(=NCC3CC3)[C@]2(Cc2ccccc2)[C@H]2C1=CC[C@H]1C(=O)N(CC)C(=O)[C@H]12 | inconclusive: 28.2 µM [activator, single point] | – |
| O=C(Nc1nc2ccc(Cl)cc2s1)C1CC1 | inactive | – |
| Cc1ccc(CNC(=O)c2ccc3c(c2)CCN3S(=O)(=O)c2ccccc2)cc1 | inconclusive: 35.5 µM [activator, single point] | – |
| O=S(=O)(Nc1ccc2c(c1)nc1n2CCN(Cc2ccccc2)C1)c1ccc(F)cc1 | inconclusive: 50.1 µM [activator, single point] | – |
| C=Cc1ccc(Cn2c(C(=O)O)c(CNCc3ccc(F)cc3)c3ccc(C)cc32)cc1 | active: 31.6 µM | – |
| CCOc1cccc(NC(=O)C2CC(=O)N(CC)C(=Nc3ccc(F)cc3)S2)c1 (stereo unspecified) | inactive | – |
| COc1ccc(Cn2c(C(=O)O)c(CNCCc3ccco3)c3ccc(OC)cc32)cc1 | inconclusive: 44.7 µM [activator, single point] | – |

Reference: PubChem BioAssay AID1347120 (National Center for Advancing Translational Sciences (NCATS), 2019)
